Whole data set: some 33,000 sequences, median “E-score (-0.5 to 0.5)” near -0.021, cut for the highest 2% near 0.32. Some of the results follow.
target: T1, Zap1 (UniProt P47043); test: PBM E-score (8-mer binding enrichment) (E-score (-0.5 to 0.5)); higher = stronger / more preferred TF binding; most listed sequences are background and not binding sites; conditions: protein concentration: 200 nM; construct: GST-full length
T1 sequence: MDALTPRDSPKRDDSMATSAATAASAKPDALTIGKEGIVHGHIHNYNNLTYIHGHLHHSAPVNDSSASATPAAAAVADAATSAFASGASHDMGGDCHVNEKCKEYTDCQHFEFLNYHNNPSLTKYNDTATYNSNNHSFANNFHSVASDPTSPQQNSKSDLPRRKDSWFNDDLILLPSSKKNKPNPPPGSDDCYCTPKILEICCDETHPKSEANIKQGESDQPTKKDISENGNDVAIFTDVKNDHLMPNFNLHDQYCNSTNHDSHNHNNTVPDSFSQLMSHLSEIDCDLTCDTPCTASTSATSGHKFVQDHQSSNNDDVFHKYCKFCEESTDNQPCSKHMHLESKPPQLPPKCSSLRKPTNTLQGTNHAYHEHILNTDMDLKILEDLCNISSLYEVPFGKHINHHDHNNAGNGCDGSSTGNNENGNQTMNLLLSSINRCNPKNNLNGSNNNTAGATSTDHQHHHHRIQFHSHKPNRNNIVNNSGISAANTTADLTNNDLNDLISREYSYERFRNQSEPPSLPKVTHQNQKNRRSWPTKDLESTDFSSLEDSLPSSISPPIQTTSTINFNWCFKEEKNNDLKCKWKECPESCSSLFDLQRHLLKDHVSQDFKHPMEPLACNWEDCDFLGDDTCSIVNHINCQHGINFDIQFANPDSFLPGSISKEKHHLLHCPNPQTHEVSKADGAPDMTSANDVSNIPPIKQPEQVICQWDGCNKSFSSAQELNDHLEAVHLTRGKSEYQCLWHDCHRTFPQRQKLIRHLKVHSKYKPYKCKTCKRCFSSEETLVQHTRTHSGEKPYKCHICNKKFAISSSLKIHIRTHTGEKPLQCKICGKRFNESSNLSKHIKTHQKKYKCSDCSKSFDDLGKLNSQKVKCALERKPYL
Method in brief: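 GST-tagged yeast TFs (full-length or DNA-binding domain) were made by PURExpress in vitro transcription/translation and applied at about 100-200 nM to universal all-10-mer Agilent arrays. The arrays were made double-stranded by primer extension, on fresh or once-stripped slides. Bound protein was detected with fluorescent anti-GST, and scans were normalised with masliner. Each ungapped eight-base word, pooled with its reverse complement, received an E-score (modified Wilcoxon-Mann-Whitney statistic) from the Universal PBM Analysis Suite.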

Sequence	PBM E-score
ACGTACCA	-0.0952
CGGATTCA	-0.214
GCATCGGA	-0.108
GTAGTGGA	0.0595
CCCTCCTC	-0.0866
ACCACTCG	0.197
AGTCTTTG	-0.0475
ATAGCAGC	-0.228
AAATAAGT	0.0355
ATACATAC	-0.122
ACCCTAGC	0.247
ATACCGAG	0.0739
CGTCATGA	0.0742
CTCATTTC	0.0143
ATATGTGC	-0.105
CGTGAACA	0.221
AATTAGGC	-0.0246
ATTTGCCC	-0.0591
ACTGGTAC	0.15
ACGAGGTC	0.27
ACCCGAAA	0.328
GGGTATTA	0.267
CATAGAGG	0.0738
AGCATTAT	-0.1

Sequence	PBM E-score
GCGGGTAA	0.106
GGCCGTAC	0.117
CAGTCATC	-0.3
CCACCTGC	-0.0244
CCTTTCTC	-0.006
CGTACCGA	-0.135
ACAAACAA	0.142
CTGCATCC	-0.0895
ATATATTC	-0.0796
CCCCCATC	-0.0216
CCTAATTA	0.0706
GTCCTTAA	0.268
AATCCGGC	-0.241
CGTAATAG	-0.0281
TAGGTCAA	0.139
TCCGTCCA	-0.0919
ATAGTCTA	-0.111
ACTACCTG	0.118
GAGTGGCA	-0.221
AGTCTCAA	-0.0712
GTACACAC	0.0642
CAGCCACG	-0.141
ACAAGGCA	-0.181
AGGATACA	-0.161

Sequence	PBM E-score
GTGGCGGA	-0.117
CCTTGGAA	0.102
GACAAGGA	-0.0301
CTAGTGCC	-0.168
AAACTCTT	-0.194
AGGGATTA	0.122
AGAAATCC	-0.104
CGAAGAAG	-0.0716
ACCCAAGC	-0.0155
GAACGGGA	-0.128
AATCCGTC	-0.0793
ACTACCAC	0.119
CCTGAGCA	0.0632
ATTGAGAA	0.128
ACCGTCGA	0.0603
GGCGTAAA	-0.0676
ACCTGTCG	0.0224
CGTCGAAG	-0.182
CGAAGATC	-0.146
CGTCCATC	-0.194
AGTGGTAA	0.241
TGACTAAA	-0.0176
CTAAATAC	0.0338
CTTGATGA	0.189

Sequence	PBM E-score
TAACCAAA	0.386
TGGGCCCA	0.0602
ACTAGGTA	-0.0051
CCGACATA	0.0519
AAAAGGCT	0.0247
ACTTCTAT	-0.0897
CCTCCAGG	0.0633
AACTACAT	0.0935
ATGCACGA	-0.0638
CACAAACC	0.00637
CTCAGGAC	0.0351
ACATTCCT	-0.107
CATCTCTA	-0.0862
AAGAACCG	0.16
GACCGCAA	0.226
GCAACCTA	0.106
GCGGTTCA	-0.00935
CCAGCACG	-0.131
CCCCCAAG	-0.0304
AGCCGAAC	-0.144
ATAAACAC	0.156
GCCAAAAA	0.226

Reference: the supplement of paper PMC3334620
